Test system: PhoU mutant JHU-313
Assay: Energy inhibitor exposure in MOPS minimal medium pH 5.0 (CFU)
Details: 1 day of exposure; DCCD 5 mM, CCCP 1 mM; MOPS pH 5.0

Row | Compound | drop in CFU counts in the PhoU mutant over that of the wild type strain W3110
1 | N#CC(C#N)=NNc1cccc(Cl)c1 [CCCP, carbonyl cyanide m-chlorophenylhydrazone] | about 1000 fold
2 | C(=NC1CCCCC1)=NC1CCCCC1 [DCCD] | about 1000 fold
